Source: publication PMC12136788
This is one part of the list.

B1: 27785926_27800972_2401_CDS_ENSMUSG00000022263_ENSMUST00000090247|mouse|control|control (ssRNA)
RNA: GGGAGUUCUACAGUCCGACGAUCCACCGACUCGGCGUACACGUCGUCCAGCAGUUCCUUCUGUAACUCCUCCAGCCAUGUCCAGAGCUCUUUUACGUGCGUGUGAAAUGACACAGACAUGUCCAGCAGGAUCUUUCGUUGUUCCAACAGAGGAUUGAGCAUCA
B2: chrX:70927055:70927056:+_ENSMUSG00000019558_ENSMUST00000114465|mus_hu|motif|central (ssRNA)
RNA: GGGAGUUCUACAGUCCGACGAUCCCUUUGCCCAGAGGCGCCAUUUACAUCUGGCAUUCACCUUUGCUAAGAGAUAGAGAUCGGUAUAUACUCUCCGUACUCACGCACGCGUGCACUCGCACCCAAGCUCACACAAUUGAUACUCAACAGAGGAUUGAGCAUCA
B3: 98576476_98579460_8777_CDS_ENSG00000196367_ENST00000355540|human|control|control (ssRNA)
RNA: GGGAGUUCUACAGUCCGACGAUCGCAGAUGGCCAGGUAUCCGCGGUACAUGUUCACCUUCCAGGCCAUCUCCUUCGGACAGCUCACUUCCACCUGCACCAGCGCCUCCUUCAUGGCAGUCCAGUUGGACACCCGCCAGGCGCACAACAGAGGAUUGAGCAUCA
B4: chr2:180453240:180453241:+_ENSMUSG00000027573_ENSMUST00000029090|mus_mus|FALSE|FALSE (ssRNA)
RNA: GGGAGUUCUACAGUCCGACGAUCCUCACCUCUCUCACACACAUCCCCUCCCAAAAGCCACACAGCCCACACCAAGACAAAAAACCGAUCCAAACUCAAUACCCACACAAAAGUUAUCUUUGAAUUAAGAUUUACAAAUUUAUACAACAGAGGAUUGAGCAUCA
B5: chr17:45747064:45747065:+_ENSG00000108424_ENST00000290158|hu_mus|motif|central (ssRNA)
RNA: GGGAGUUCUACAGUCCGACGAUCGCCCACAGUCCACGCUGUUGUGUCUCGAACAACUACACUGGGGUCUUUCAUUAGUUCGGUUAGGGUGGGCAUAGCCUGUAUGACUAAUGGUUUCAGUUGAUUAGGCUCUGGUCCUUCCAACAACAGAGGAUUGAGCAUCA
B6: chr4:95690885:95690886:+_ENSMUSG00000028572_ENSMUST00000156910|mus_mus|mus_mus_mus_hu_False|18_38 (ssRNA)
RNA: GGGAGUUCUACAGUCCGACGAUCUUUAGAAAAUGUUAAAUACCAUGCUAAAAUAUUUUCAAAGGCUUAUUUUAUUUUACCAGAAGUCACAGGCAAGCAGACACCAUAAGAAUAUAUAAAUACAAACCUCAACAAUAUAACUGUCAACAGAGGAUUGAGCAUCA
B7: chr17:85413340:85413341:+_ENSMUSG00000061130_ENSMUST00000080217|mus_mus|motif|central (ssRNA)
RNA: GGGAGUUCUACAGUCCGACGAUCAGUCAAUCUUAAACUAUCAUAAAGGUGUAUGCAAAGGCCUUUAAAAAAACCAAGACGGUAGGAAUAUAAGAAAACUAGUUUUUCAAGAUUCAAAUAACAAAAUGGUUAUAUAAAAGCACACAACAGAGGAUUGAGCAUCA
B8: chr6:122779733:122779734:-_ENSG00000111897_ENST00000339697|hu_mus|FALSE|FALSE (ssRNA)
RNA: GGGAGUUCUACAGUCCGACGAUCUAACAUUACACAAGCUACACAUACUCCGACGAGCAAGAAAAGUGCGUAGAUCAAUCUAGUCACAGUGGAGUUGUUCCCACUGGGGCAGCAUCGGCACAGCAAACACGGGGCACUGCCACACAACAGAGGAUUGAGCAUCA
B9: 192160836_192194664_288_CDS_ENSG00000128641_ENST00000304164|human|control|control (ssRNA)
RNA: GGGAGUUCUACAGUCCGACGAUCAAAGAUGUGAGGGCUCAGUUCAUAAAAAUUUCUGUUCCUGUAUUCUUCCACUUUCUCUGGUGAAUAAAUGGGUAAAGACCGGUAUGGGUUAACAGAUAUAACCACACUUCCAAUGUAUGUCAACAGAGGAUUGAGCAUCA
B10: chr4:106720802:106720803:+_ENSMUSG00000061887_ENSMUST00000030367|mus_hu|motif|central (ssRNA)
RNA: GGGAGUUCUACAGUCCGACGAUCGUUUUGUCCUUCUUGUUUUAUGGAAUAAAAAGUUUGGCCUUUUUAUUGCAUGAAACGGAAAUUGGGAAAGGUAGGGGGCGUGGAUGGGGUGGGAGGGGGUUGAGGGGAGCAGGGAGAUGCCAACAGAGGAUUGAGCAUCA
B11: chr17:49239293:49239294:+_ENSG00000239672_ENST00000393196|hu_mus|FALSE|FALSE (ssRNA)
RNA: GGGAGUUCUACAGUCCGACGAUCCACAGGGAGUCACAGCUCCCAAAGGUUCCUUCCAGGUCAAAGAAGUUCCAGAAAUAUCUAGGGUUGCUGGUCCCCUGCCUGUGAGAACAAGAGUAAGCAGGUAGAAAACCAGCACCGUCCCAACAGAGGAUUGAGCAUCA
B12: chr7:72463354:72463355:-_ENSMUSG00000030516_ENSMUST00000102592|mus_mus|FALSE|FALSE (ssRNA)
RNA: GGGAGUUCUACAGUCCGACGAUCUAGCUUCCUGGCGCUUUUCCGAGACUCCGGACACAACCUCAUCCUCAUUGUUUUUACACCUUGCUUAGAGUCAGGGUUAAGGAACACAACAAUUGGAUACCACUGCGCAUAAUUAAGACGCAACAGAGGAUUGAGCAUCA
B13: chr1:78428562:78428563:-_ENSG00000162613_ENST00000370768|hu_mus|FALSE|FALSE (ssRNA)
RNA: GGGAGUUCUACAGUCCGACGAUCAAUUGUAAAUAACUUCAUAUUGGGAUCUGCAUUAGGUGGAGGGCUUCUCUGCAGUUCUAUUCUUGCACCAGACUGUUGGCUUAUGCUUUUUAUGGUUUCACCUCCUUUUCCAAUGAUCAGCAACAGAGGAUUGAGCAUCA
B14: chr14:21343309:21343310:-_ENSMUSG00000021816_ENSMUST00000161445|mus_mus|motif|central (ssRNA)
RNA: GGGAGUUCUACAGUCCGACGAUCAGGAUCAGACCAUAGCAAGUCACACAUUGGUCCAAAUGCAGGUGGCUCUUUAAAUCGGUCGGAUCUCCUAAUAUCAUCCAGUGUGUGUAUUUCUGGUGAAAGUCCACCAUGAACACAAAGCAACAGAGGAUUGAGCAUCA
B15: 112478359_112480922_2652_CDS_ENSG00000111300_ENST00000261745|human|control|control (ssRNA)
RNA: GGGAGUUCUACAGUCCGACGAUCACCUUUACAUUUACUGAAGACAUCUUUUAACUGGUCUAGUAAAGACUUAAAACUAUUUUCUAUUCGUUCCUGAAUCUCCAUUGUAUCCUCUAAACCACUGGUAUCCAGCUCAUAAAUAUCCAACAGAGGAUUGAGCAUCA
B16: chr15:66793332:66793333:-_ENSG00000174444_ENST00000568588|hu_hu|motif|central (ssRNA)
RNA: GGGAGUUCUACAGUCCGACGAUCCAUGGGAAGAUUGUAGUUACUCUUGAGGGAAGCGGCUUUACGCCAAGUGCCGUACAAUUCAUCGGACUUCCGGAAAGCACUUUCAGUCCAAAUGCAGAAACGUCCCACAUGCCCACCAGGCAACAGAGGAUUGAGCAUCA
B17: chr17:5392700:5392701:+_ENSG00000167842_ENST00000573759|hu_hu|motif|central (ssRNA)
RNA: GGGAGUUCUACAGUCCGACGAUCGUUCUGUAGUUUUCUGGAGUUCUGAACCAGGGAUACUAAACUCUCCCUAAAAUCACGGGUCCCAUGAUCUCUGCCAACAUUAUGAAGCUCAUCAAAGAAAGUCAACGUCUGUUUGAGUUUCAACAGAGGAUUGAGCAUCA
B18: chr16:18284709:18284710:-_ENSMUSG00000022718_ENSMUST00000009321|mus_hu|motif|central (ssRNA)
RNA: GGGAGUUCUACAGUCCGACGAUCAACCACUGCCUCAAUUAUUGGAAAUCACAAUGCACUCAGCUUAAGUGACUGGCGACGGAGCGAGUCUGUCUUCAUGCCGGAGUGGCACCUUUCUUCUUCUACCUGAGGCGCCCGCGGGCUCAACAGAGGAUUGAGCAUCA
B19: chr7:140404665:140404666:+_ENSG00000090266_ENST00000247866|hu_hu|hu_hu_hu_mus_False|28_88 (ssRNA)
RNA: GGGAGUUCUACAGUCCGACGAUCUGCUCCUACUCGUCCAGAGAGUUUACACCUUCAGUCCUCGUCAUCAGGAGGGAUUCCCAGUUCUUCAUCUGUCCACUGUGAAGGAUCAGGAUAUGAAAAGUGACCCAGCACAGCAUCCGACAACAGAGGAUUGAGCAUCA
B20: 158574767_158574887_5279_3pUTR_ENSMUSG00000026596_ENSMUST00000166172|mouse|control|control (ssRNA)
RNA: GGGAGUUCUACAGUCCGACGAUCUUAAUAAUGCCCUCAAGUUUUCACUUCCUCUGCCCCAUCUAACUAAGUUAACUGCUAGAAUAAAUUCAAGUUUAUGCGUGCAUCCGAUGUGCAGAACAGUGGCCACCAAGGUGGAGGGAACAACAGAGGAUUGAGCAUCA
B21: chr7:156476592:156476593:-_ENSG00000105983_ENST00000359422|hu_hu|FALSE|FALSE (ssRNA)
RNA: GGGAGUUCUACAGUCCGACGAUCUCUACAGAAGAAUGCGCUGUUCUAUAUGUCUGUAAGGAAUCUGCACUUAACUGGAAACUACAGGGUCCAUCAGAAAGUUAAAUUUAAAAAAGAUCAGCCAUAGCCAAGUUCUUCGUAGAUCAACAGAGGAUUGAGCAUCA
B22: 184052540_184052660_4587_CDS_ENSG00000114867_ENST00000411531|human|control|control (ssRNA)
RNA: GGGAGUUCUACAGUCCGACGAUCCCACUUGAAGAAGGCUGUGACAGAUUUAAGGGCCACACCCUUGCCCUGCUGCUCAGCGGGGUCCUUGCUACUCUCCCAACUGUAGAAGGCAUCCUCCUUCACCACGUCCUCGUCAUACAGCAACAGAGGAUUGAGCAUCA

Each binder was assayed against T1, UNK ZnF1-3 (human, UniProt Q9C0B0 31-174) (assay: nsRBNS (natural sequence RNA bind-n-seq); RBNS binding buffer (assumed for nsRBNS): 25 mM Tris pH 7.5, 150 mM KCl, 3 mM MgCl2, 0.01% Triton X-100, 500 ug/ml BSA, 20 U/ml SUPERase-In, 4 C; UNK is unkempt and MSI1 is Musashi-1; names of the RNAs are library labels; protein concentration not given here; high values mean tight binding).
T1 sequence: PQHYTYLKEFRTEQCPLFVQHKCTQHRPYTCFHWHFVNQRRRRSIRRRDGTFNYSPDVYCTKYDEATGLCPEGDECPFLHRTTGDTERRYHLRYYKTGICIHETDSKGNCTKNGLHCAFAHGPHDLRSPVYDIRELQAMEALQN

Row | Binder | binding signal [enrichment R]
1 | B1 | 0.649
2 | B2 | 0.827
3 | B3 | 0.87
4 | B4 | 2.39
5 | B5 | 0.528
6 | B6 | 2.29
7 | B7 | 1.28
8 | B8 | 1.21
9 | B9 | 1.14
10 | B10 | 1.2
11 | B11 | 0.811
12 | B12 | 1.35
13 | B13 | 0.66
14 | B14 | 0.832
15 | B15 | 0.977
16 | B16 | 0.923
17 | B17 | 0.926
18 | B18 | 0.874
19 | B19 | 1.1
20 | B20 | 1.37
21 | B21 | 1.75
22 | B22 | 0.809
